Data: the supplement of paper PMC12217912
This is one part of the list. The full chains were built here from the parent and the listed change. Inactive controls read about 0.05.

B1: TEV protease; numbered along this chain (parent)
chain: MGESLFKGPRDYNPISSSICHLTNESDGHTTSLYGIGFGPFIITNKHLFRRNNGTLVVQSLHGVFKVKDTTTLQQHLVDGRDMIIIRMPKDFPPFPQKLKFREPQREERICLVTTNFQTKSMSSMVSDTSCTFPSGDGIFWKHWIQTKDGQCGSPLVSTRDGFIVGIHSASNFTNTNNYFTSVPKNFMELLTNQEAQQWVSGWRLNADSVLWGGHKVFMVKPEEPFQPVKEATQL

Variants of: B1
Test: raw area under fraction-flipped curve 0-4 h after induction (AUC4h, not background-subtracted), DNA-recorder readout of cleavage of the substrate (dimensionless); higher = more cleavage of the substrate by the protease variant
Conditions: temperature: 34 °C; time window: 0-4 h after rhamnose induction
Experimental: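 In vivo DNA recorder in E. coli TOP10(DE3) ΔrhaA at 34 °C. Each TEVp single-site mutant (parent TEVp 0) is paired with a single-site variant of the 7-mer TEVs (canonical ENLYFQ|S). The substrate sits between flexible linkers in a Bxb1-sfGFP-TEVs-SsrA fusion, so cleavage stabilises Bxb1 and speeds flipping of a recombination array, read by NGS. The value is the raw area under the fraction-flipped curve over 0-4 h after rhamnose induction (AUC4h), with ≥20 reads per time point. It is not background-subtracted; inactive controls average about 0.047.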
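Also: Bxb1 expression induced with 0.2% (w/v) L-rhamnose at OD600 near 0.5, cultures sampled hourly, flipped fraction per protease–substrate barcode pair counted by paired-end Illumina sequencing.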

Variant | area with substrate ENLYFQA | area with substrate ENLYFQC | area with substrate ENLYFQD | area with substrate ENLYFQE | area with substrate ENLYFQG | area with substrate ENLYFQI | area with substrate ENLYFQK | area with substrate ENLYFQL | area with substrate ENLYFQM | area with substrate ENLYFQR | area with substrate ENLYFQS | area with substrate ENLYFQT | area with substrate ENLYFQV | area with substrate ENLYFQW | area with substrate ENLYFQY | area with substrate ENLYFQF | area with substrate ENLYFQH | area with substrate ENLYFQN | area with substrate ENLYFQP | area with substrate ENLYFQQ
MGHSLFKGPRDYNPISSSICHLTNESDGHTTSLYGIGFGPFIITNKHLFRRNNGTLVVQSLHGVFKVKDTTTLQQHLVDGRDMIIIRMPKDFPPFPQKLKFREPQREERICLVTTNFQTKSMSSMVSDTSCTFPSGDGIFWKHWIQTKDGQCGSPLVSTRDGFIVGIHSASNFTNTNNYFTSVPKNFMELLTNQEAQQWVSGWRLNADSVLWGGHKVFMVKPEEPFQPVKEATQL [E3H] | 0.0929 | 0.0722 | 0.0848 | 0.0608 | 0.111 | 0.0634 | 0.0715 | 0.0616 | 0.0857 | 0.0647 | 0.11 | 0.0802 | 0.0617 | 0.0672 | 0.082 | – | – | – | – | –
MGMSLFKGPRDYNPISSSICHLTNESDGHTTSLYGIGFGPFIITNKHLFRRNNGTLVVQSLHGVFKVKDTTTLQQHLVDGRDMIIIRMPKDFPPFPQKLKFREPQREERICLVTTNFQTKSMSSMVSDTSCTFPSGDGIFWKHWIQTKDGQCGSPLVSTRDGFIVGIHSASNFTNTNNYFTSVPKNFMELLTNQEAQQWVSGWRLNADSVLWGGHKVFMVKPEEPFQPVKEATQL [E3M] | 0.127 | 0.111 | – | 0.0798 | – | 0.0552 | 0.0809 | 0.0819 | 0.112 | 0.0507 | 0.13 | – | 0.0469 | 0.0682 | 0.0503 | 0.082 | 0.0629 | – | – | –
MGECLFKGPRDYNPISSSICHLTNESDGHTTSLYGIGFGPFIITNKHLFRRNNGTLVVQSLHGVFKVKDTTTLQQHLVDGRDMIIIRMPKDFPPFPQKLKFREPQREERICLVTTNFQTKSMSSMVSDTSCTFPSGDGIFWKHWIQTKDGQCGSPLVSTRDGFIVGIHSASNFTNTNNYFTSVPKNFMELLTNQEAQQWVSGWRLNADSVLWGGHKVFMVKPEEPFQPVKEATQL [S4C] | 0.079 | 0.0839 | 0.0643 | – | 0.0821 | 0.058 | 0.0781 | 0.0607 | 0.0731 | 0.063 | 0.0834 | 0.0695 | – | 0.0771 | 0.0536 | – | 0.0619 | 0.0743 | 0.0467 | –
MGESLFDGPRDYNPISSSICHLTNESDGHTTSLYGIGFGPFIITNKHLFRRNNGTLVVQSLHGVFKVKDTTTLQQHLVDGRDMIIIRMPKDFPPFPQKLKFREPQREERICLVTTNFQTKSMSSMVSDTSCTFPSGDGIFWKHWIQTKDGQCGSPLVSTRDGFIVGIHSASNFTNTNNYFTSVPKNFMELLTNQEAQQWVSGWRLNADSVLWGGHKVFMVKPEEPFQPVKEATQL [K7D] | 0.0805 | 0.105 | 0.0743 | – | – | 0.0512 | – | 0.0561 | 0.075 | 0.0792 | 0.0863 | – | – | – | 0.0776 | 0.0816 | 0.0686 | – | – | –
MGESLFKGLRDYNPISSSICHLTNESDGHTTSLYGIGFGPFIITNKHLFRRNNGTLVVQSLHGVFKVKDTTTLQQHLVDGRDMIIIRMPKDFPPFPQKLKFREPQREERICLVTTNFQTKSMSSMVSDTSCTFPSGDGIFWKHWIQTKDGQCGSPLVSTRDGFIVGIHSASNFTNTNNYFTSVPKNFMELLTNQEAQQWVSGWRLNADSVLWGGHKVFMVKPEEPFQPVKEATQL [P9L] | 0.114 | 0.162 | 0.0751 | – | 0.171 | 0.0521 | – | 0.0674 | 0.109 | 0.0605 | 0.116 | – | – | 0.0782 | – | – | 0.0885 | 0.0751 | – | 0.0762
MGESLFKGPMDYNPISSSICHLTNESDGHTTSLYGIGFGPFIITNKHLFRRNNGTLVVQSLHGVFKVKDTTTLQQHLVDGRDMIIIRMPKDFPPFPQKLKFREPQREERICLVTTNFQTKSMSSMVSDTSCTFPSGDGIFWKHWIQTKDGQCGSPLVSTRDGFIVGIHSASNFTNTNNYFTSVPKNFMELLTNQEAQQWVSGWRLNADSVLWGGHKVFMVKPEEPFQPVKEATQL [R10M] | 0.125 | 0.124 | – | – | 0.0805 | 0.0524 | 0.052 | – | 0.0884 | 0.0745 | 0.106 | 0.0672 | 0.0338 | 0.0564 | – | 0.0745 | 0.0789 | 0.0924 | – | 0.0639
MGESLFKGPRVYNPISSSICHLTNESDGHTTSLYGIGFGPFIITNKHLFRRNNGTLVVQSLHGVFKVKDTTTLQQHLVDGRDMIIIRMPKDFPPFPQKLKFREPQREERICLVTTNFQTKSMSSMVSDTSCTFPSGDGIFWKHWIQTKDGQCGSPLVSTRDGFIVGIHSASNFTNTNNYFTSVPKNFMELLTNQEAQQWVSGWRLNADSVLWGGHKVFMVKPEEPFQPVKEATQL [D11V] | 0.0877 | 0.107 | 0.0623 | 0.0671 | 0.0621 | 0.0577 | 0.0706 | 0.0603 | 0.0824 | 0.0681 | 0.0875 | 0.0633 | 0.0588 | 0.0498 | – | 0.0674 | 0.119 | 0.0695 | 0.0574 | –
MGESLFKGPRDLNPISSSICHLTNESDGHTTSLYGIGFGPFIITNKHLFRRNNGTLVVQSLHGVFKVKDTTTLQQHLVDGRDMIIIRMPKDFPPFPQKLKFREPQREERICLVTTNFQTKSMSSMVSDTSCTFPSGDGIFWKHWIQTKDGQCGSPLVSTRDGFIVGIHSASNFTNTNNYFTSVPKNFMELLTNQEAQQWVSGWRLNADSVLWGGHKVFMVKPEEPFQPVKEATQL [Y12L] | 0.0954 | 0.129 | 0.0772 | – | 0.103 | 0.0578 | 0.0771 | 0.0723 | 0.0914 | 0.0569 | 0.108 | 0.0649 | 0.0357 | 0.062 | – | 0.0903 | 0.114 | 0.0763 | 0.0596 | 0.0725
MGESLFKGPRDYEPISSSICHLTNESDGHTTSLYGIGFGPFIITNKHLFRRNNGTLVVQSLHGVFKVKDTTTLQQHLVDGRDMIIIRMPKDFPPFPQKLKFREPQREERICLVTTNFQTKSMSSMVSDTSCTFPSGDGIFWKHWIQTKDGQCGSPLVSTRDGFIVGIHSASNFTNTNNYFTSVPKNFMELLTNQEAQQWVSGWRLNADSVLWGGHKVFMVKPEEPFQPVKEATQL [N13E] | 0.0864 | 0.14 | 0.0771 | 0.0703 | 0.0866 | 0.0565 | – | 0.069 | 0.0807 | 0.0541 | 0.102 | 0.059 | 0.0514 | 0.0563 | – | 0.0698 | 0.0858 | – | 0.0652 | –
